Common to all, as to conditions: both partners purified
The target of assay [1] is T1, MSP 689C (active two-chain macrophage stimulating protein; Q19-G711; C672A; 689C) (human, UniProt P26927 19-483; P26927 484-711, C672A | 689R to 689C).
T1 construct: MSP alpha-chain of human macrophage stimulating protein: from Q19 of the pro-MSP construct to R483 (cleavage between R483 and V484); disulfide-linked to the beta-chain; Made as single-chain pro-MSP (Q19-G711; C672A; C-terminal 6-His) and cleaved by sHepsin; For the radioligand assay part of the protein was iodinated with 125I (Iodogen); source: CHO cells, transiently transfected, secreted; …
The assay can be described thus: SPR; RON-Fc captured (50-100 RU) on immobilised anti-human Fc surfaces, CM5 chip, Biacore 3000; MSP, MSP β or scMSP injected 500-3.9 nM in HBS-P (10 mM HEPES pH 7.5, 150 mM NaCl, 0.005% P20), 25°C, 30 µl/min; global 1:1 Langmuir fit, KD = koff/kon. For orientation: In SPR one partner is held on a chip, and binding of the other changes the refractive index at the surface.

The target in assay [2] is T2, MSP 689R (active two-chain macrophage stimulating protein; Q19-G711; C672A) (human, UniProt P26927 19-483; P26927 484-711, C672A).
T2 construct: MSP alpha-chain of human macrophage stimulating protein: from Q19 of the pro-MSP construct to R483 (cleavage between R483 and V484); disulfide-linked to the beta-chain; Made as single-chain pro-MSP (Q19-G711; C672A; C-terminal 6-His) and cleaved by sHepsin; For the radioligand assay part of the protein was iodinated with 125I (Iodogen); also called HGFL; MST1; source: CHO cells, transiently …
The description is as above.

The target of assay [3] is T1, MSP 689C (active two-chain macrophage …). As to the kind of experiment: BLI; RON-Fc (10 µg/ml) loaded on anti-human IgG Fc biosensors, Octet RED384; MSP, MSP β or scMSP 75-4.7 nM, 400 s association, 400 s dissociation, 30°C; global 1:1 fit, KD = koff/kon. A general note: BLI is a label-free optical method that tracks binding on a fibre tip over time.
The target of assay [4] is T2, MSP 689R (active two-chain macrophage …). Described as above.

B1: RON-Fc (human RON Sema, PSI and IPT1 domains, […], Fc fusion with human IgG1) (Fc fusion)
chain: not shown
notes: human RON (Recepteur d'Origine Nantais, MST1R), Sema, PSI and IPT1 domains, […]; also called RON-Fc fusion protein; source: CHO cells; purified (MabSelect Sure, SEC)
By Kd is commonly meant the free concentration of one partner at which half of the binding sites on the other are occupied at equilibrium, for simple one-to-one binding. A higher Kd goes with lower affinity. The koff is the rate constant with which the complex falls apart. Usually kon stands for the second-order rate constant of association. A lower kon goes with slower complex formation. On to B1, for which the Kd turned out to be 9.6 nM in assay [1], 6.4 nM in assay [2], 9.4 nM in assay [3] and 9.9 nM in assay [4]. Further, the koff was found to be 0.0002 s⁻¹ in assay [1], 0.0033 s⁻¹ in assay [2], 0.0042 s⁻¹ in assay [3] and 0.0025 s⁻¹ in assay [4]. For the same molecule, the kon is 17000 M⁻¹ s⁻¹ in assay [1], 510000 M⁻¹ s⁻¹ in assay [2], 430000 M⁻¹ s⁻¹ in assay [3] and 250000 M⁻¹ s⁻¹ in assay [4].
